Measured values taken from the supplement of paper PMC4604168 (melanoma cell lines).
Some of the results follow. Most values come without repeats; read them as rough.

Test system: WM1716
Experiment: cell count relative to DMSO control; melanoma cells; higher = more viable cells
Conditions: library dose: low library concentration; 72 h
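Further: cell number obtained by counting DAPI-stained nuclei in high-throughput microscope images with image analysis software, screen run in 1,536-well plates.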

| Compound | cell count [%] |
| --- | --- |
| CS(=O)(=O)CCNCc1ccc(-c2ccc3ncnc(Nc4ccc(OCc5cccc(F)c5)c(Cl)c4)c3c2)o1 [lapatinib] + NC(=O)Nc1cc(-c2cccc(F)c2)sc1C(=O)N[C@H]1CCCNC1 [AZD7762] (first compound 0.8 µM, partner dose 0.02 µM) | 75.9 |
| C[C@@H](Oc1cc(-c2cnn(C3CCNCC3)c2)cnc1N)c1c(Cl)ccc(F)c1Cl [Crizotinib] + O=C(Nc1ccccc1)c1cc([N+](=O)[O-])ccc1Cl [GW9662] (first compound 0.2 µM, partner dose 2 µM) | 124 |
| CNC(=O)c1cc(Oc2ccc(NC(=O)Nc3ccc(Cl)c(C(F)(F)F)c3)cc2)ccn1 [sorafenib] + Cc1cc(N2CCOCC2)cc2[nH]c(-c3c(NC[C@@H](O)c4cccc(Cl)c4)cc[nH]c3=O)nc12 [BMS536924] (first compound 0.4 µM, partner dose 0.2 µM) | 100 |
| CN1CCN(c2ccc3nc(-c4c(N)c5c(F)cccc5[nH]c4=O)[nH]c3c2)CC1 [Dovitinib] + CC(C)(C)c1cnc(CSc2cnc(NC(=O)C3CCNCC3)s2)o1 [SNS-032] (first compound 0.1 µM, partner dose 0.01 µM) | 99.8 |
| C=CCNC1=C2C[C@@H](C)C[C@H](OC)[C@H](O)[C@@H](C)/C=C(\C)[C@H](OC(N)=O)[C@@H](OC)/C=C\C=C(/C)C(=O)NC(=CC1=O)C2=O [Tanespimycin] + NCC(=O)Nc1ccc(-n2nc(C(F)(F)F)cc2-c2ccc3c(ccc4ccccc43)c2)cc1 [OSU03012] (first compound 0.002 µM, partner dose 1 µM) | 89.5 |
| CS(=O)(=O)CCNCc1ccc(-c2ccc3ncnc(Nc4ccc(OCc5cccc(F)c5)c(Cl)c4)c3c2)o1 [lapatinib] + COc1ccc(-c2ccc3c(N4CCOCC4)nc(N4C[C@@H](C)O[C@@H](C)C4)nc3n2)cc1CO [KU0063794] (first compound 0.8 µM, partner dose 0.02 µM) | 101 |
| C=CCNC1=C2C[C@@H](C)C[C@H](OC)[C@H](O)[C@@H](C)/C=C(\C)[C@H](OC(N)=O)[C@@H](OC)/C=C\C=C(/C)C(=O)NC(=CC1=O)C2=O [Tanespimycin] + COC(=O)c1sccc1S(=O)(=O)Nc1ccc(Nc2ccccc2)cc1OC [GSK0660] (first compound 0.002 µM, partner dose 1 µM) | 101 |
| C[C@@H](Oc1cc(-c2cnn(C3CCNCC3)c2)cnc1N)c1c(Cl)ccc(F)c1Cl [Crizotinib] + O=C(O)C(=O)Nc1sc2c(c1C(=O)O)CCNC2 [TCS401] (first compound 0.2 µM, partner dose 1.66667 µM) | 124 |
| CS(=O)(=O)CCNCc1ccc(-c2ccc3ncnc(Nc4ccc(OCc5cccc(F)c5)c(Cl)c4)c3c2)o1 [lapatinib] + COc1cc(Nc2ncc(F)c(Nc3ccc4c(n3)NC(=O)C(C)(C)O4)n2)cc(OC)c1OC [Tamatinib] (first compound 0.8 µM, partner dose 0.4 µM) | 91.6 |
| C[C@@H](Oc1cc(-c2cnn(C3CCNCC3)c2)cnc1N)c1c(Cl)ccc(F)c1Cl [Crizotinib] + CO[C@H]1C[C@@H]2CC[C@@H](C)[C@@](O)(O2)C(=O)C(=O)N2CCCC[C@H]2C(=O)O[C@H]([C@H](C)C[C@@H]2CC[C@@H](OCCO)[C@H](OC)C2)CC(=O)[C@H](C)/C=C(\C)[C@@H](O)[C@@H](OC)C(=O)[C@H](C)C[C@H](C)/C=C/C=C/C=C/1C [everolimus] (first compound 0.2 µM, partner dose 0.02 µM) | 73.2 |
| CN1CCN(c2ccc3nc(-c4c(N)c5c(F)cccc5[nH]c4=O)[nH]c3c2)CC1 [Dovitinib] + C[C@]1(c2nc3c(C(N)=O)cccc3[nH]2)CCCN1 [Veliparib] (first compound 0.1 µM, partner dose 1.4 µM) | 74.7 |
| C[C@@H](Oc1cc(-c2cnn(C3CCNCC3)c2)cnc1N)c1c(Cl)ccc(F)c1Cl [Crizotinib] + O=C1NC(=O)/C(=C/c2ccc(-c3ccc(F)cc3O)o2)S1 [AS252424] (first compound 0.2 µM, partner dose 1 µM) | 128 |
| CS(=O)(=O)CCNCc1ccc(-c2ccc3ncnc(Nc4ccc(OCc5cccc(F)c5)c(Cl)c4)c3c2)o1 [lapatinib] + O=C1NC(=O)/C(=C/c2ccc(-c3ccc(F)cc3O)o2)S1 [AS252424] (first compound 0.8 µM, partner dose 1 µM) | 104 |
| CN1CCN(c2ccc3nc(-c4c(N)c5c(F)cccc5[nH]c4=O)[nH]c3c2)CC1 [Dovitinib] + CN(NC(=O)CC(=O)NN(C)C(=S)c1ccccc1)C(=S)c1ccccc1 [STA4783] (first compound 0.1 µM, partner dose 0.006 µM) | 79.4 |
| C[C@@H](Oc1cc(-c2cnn(C3CCNCC3)c2)cnc1N)c1c(Cl)ccc(F)c1Cl [Crizotinib] + CNC(=O)c1cc(Oc2ccc(NC(=O)Nc3ccc(Cl)c(C(F)(F)F)c3)cc2)ccn1 [sorafenib] (first compound 0.2 µM, partner dose 0.4 µM) | 117 |
| CS(=O)(=O)CCNCc1ccc(-c2ccc3ncnc(Nc4ccc(OCc5cccc(F)c5)c(Cl)c4)c3c2)o1 [lapatinib] + CCc1ccc(CCOc2ccc(CC3SC(=O)NC3=O)cc2)nc1 [pioglitazone] (first compound 0.8 µM, partner dose 2 µM) | 97.6 |
| C[C@@H](Oc1cc(-c2cnn(C3CCNCC3)c2)cnc1N)c1c(Cl)ccc(F)c1Cl [Crizotinib] + CCN(CC)CCCCNc1ncc2cc(-c3cc(OC)cc(OC)c3)c(NC(=O)NC(C)(C)C)nc2n1 [PD173074] (first compound 0.2 µM, partner dose 0.1 µM) | 116 |
| C[C@@H](Oc1cc(-c2cnn(C3CCNCC3)c2)cnc1N)c1c(Cl)ccc(F)c1Cl [Crizotinib] + CC(C)(C)c1cnc(CSc2cnc(NC(=O)C3CCNCC3)s2)o1 [SNS-032] (first compound 0.2 µM, partner dose 0.01 µM) | 81.1 |
| CNC(=O)c1cc(Oc2ccc(NC(=O)Nc3ccc(Cl)c(C(F)(F)F)c3)cc2)ccn1 [sorafenib] + NC(=O)Nc1cc(-c2cccc(F)c2)sc1C(=O)N[C@H]1CCCNC1 [AZD7762] (first compound 0.4 µM, partner dose 0.02 µM) | 86.6 |
| CN1CCN(c2ccc3nc(-c4c(N)c5c(F)cccc5[nH]c4=O)[nH]c3c2)CC1 [Dovitinib] + Nc1nc(F)nc2c1ncn2[C@@H]1O[C@H](CO)[C@@H](O)[C@@H]1O [fludarabine] (first compound 0.1 µM, partner dose 0.2 µM) | 125 |
| CS(=O)(=O)CCNCc1ccc(-c2ccc3ncnc(Nc4ccc(OCc5cccc(F)c5)c(Cl)c4)c3c2)o1 [lapatinib] + O=S(=O)(c1ccccc1)N(CC(F)(F)F)c1ccc(C(O)(C(F)(F)F)C(F)(F)F)cc1 [T0901317] (first compound 0.8 µM, partner dose 1.4 µM) | 88.3 |
| CN1CCN(c2ccc3nc(-c4c(N)c5c(F)cccc5[nH]c4=O)[nH]c3c2)CC1 [Dovitinib] + O=C(CCCCCCC(=O)Nc1ccccc1)NO [vorinostat] (first compound 0.1 µM, partner dose 0.08 µM) | 115 |
| C[C@@H](Oc1cc(-c2cnn(C3CCNCC3)c2)cnc1N)c1c(Cl)ccc(F)c1Cl [Crizotinib] + Cn1cc(/C=C2\C(=O)Nc3cccnc32)c2ccccc21 [GW441756] (first compound 0.2 µM, partner dose 0.4 µM) | 113 |
| CN1CCN(c2ccc3nc(-c4c(N)c5c(F)cccc5[nH]c4=O)[nH]c3c2)CC1 [Dovitinib] + Cc1cc(N2CCOCC2)cc2[nH]c(-c3c(NC[C@@H](O)c4cccc(Cl)c4)cc[nH]c3=O)nc12 [BMS536924] (first compound 0.1 µM, partner dose 0.2 µM) | 103 |
| CS(=O)(=O)CCNCc1ccc(-c2ccc3ncnc(Nc4ccc(OCc5cccc(F)c5)c(Cl)c4)c3c2)o1 [lapatinib] + Clc1ccc(Nc2nnc(Cc3ccncc3)c3ccccc23)cc1 [vatalanib] (first compound 0.8 µM, partner dose 2 µM) | 105 |
